In the CheMixHub viscosity set:
Values joined by “and” are separate entries in the source; they are usually repeats but may differ in a detail not shown here. Equal entries are not always repeated. ± gives the uncertainty stated by the source. The source gives many values for each of these; only a part stands here.

Test: xn = mol fraction of the nth substance listed
Details: 101 kPa

CCCCOCCO + O
viscosity (293.15 K, x1 = 0.0762): 3.4 ± 0.027 mPa·s | viscosity (293.15 K, x1 = 0.1861): 4.746 ± 0.036 mPa·s | viscosity (293.15 K, x1 = 0.2919): 4.879 ± 0.036 mPa·s | viscosity (295.15 K, x1 = 0.0762): 3.192 ± 0.032 mPa·s | viscosity (295.15 K, x1 = 0.1861): 4.431 ± 0.044 mPa·s | viscosity (295.15 K, x1 = 0.2919): 4.554 ± 0.045 mPa·s | viscosity (297.15 K, x1 = 0.0762): 3.004 ± 0.03 mPa·s | viscosity (297.15 K, x1 = 0.1861): 4.144 ± 0.041 mPa·s | viscosity (297.15 K, x1 = 0.2919): 4.256 ± 0.042 mPa·s | viscosity (297.51 K, x1 = 0.05983): 2.592 ± 0.025 mPa·s | viscosity (298.15 K, x1 = 0.01): 1.122 ± 0.011 mPa·s | viscosity (298.15 K, x1 = 0.025): 1.52 ± 0.014 mPa·s | viscosity (298.15 K, x1 = 0.05): 2.195 ± 0.019 mPa·s | viscosity (298.15 K, x1 = 0.075): 2.763 ± 0.025 mPa·s | viscosity (298.15 K, x1 = 0.1): 3.183 ± 0.028 mPa·s | viscosity (298.15 K, x1 = 0.1191): 3.576 ± 0.027 mPa·s | viscosity (298.15 K, x1 = 0.15): 3.711 ± 0.034 mPa·s | viscosity (298.15 K, x1 = 0.2): 4.014 ± 0.037 mPa·s | viscosity (298.51 K, x1 = 0.05983): 2.518 ± 0.025 mPa·s | viscosity (299.15 K, x1 = 0.0762): 2.833 ± 0.028 mPa·s | viscosity (299.15 K, x1 = 0.1861): 3.883 ± 0.038 mPa·s | viscosity (299.15 K, x1 = 0.2919): 3.987 ± 0.039 mPa·s | viscosity (299.51 K, x1 = 0.05983): 2.449 ± 0.024 mPa·s | viscosity (300.15 K, x1 = 0.1191): 3.365 ± 0.029 mPa·s | viscosity (300.51 K, x1 = 0.05983): 2.381 ± 0.024 mPa·s | viscosity (301.15 K, x1 = 0.0762): 2.679 ± 0.026 mPa·s | viscosity (301.15 K, x1 = 0.1861): 3.646 ± 0.035 mPa·s | viscosity (301.15 K, x1 = 0.2919): 3.742 ± 0.036 mPa·s | viscosity (301.51 K, x1 = 0.05983): 2.317 ± 0.023 mPa·s | viscosity (302.15 K, x1 = 0.1191): 3.184 ± 0.027 mPa·s | viscosity (302.51 K, x1 = 0.05983): 2.254 ± 0.022 mPa·s | viscosity (303.15 K, x1 = 0.0762): 2.537 ± 0.025 mPa·s | viscosity (303.15 K, x1 = 0.1191): 3.092 ± 0.031 mPa·s | viscosity (303.15 K, x1 = 0.1861): 3.432 ± 0.033 mPa·s | viscosity (303.15 K, x1 = 0.2919): 3.514 ± 0.034 mPa·s | viscosity (303.51 K, x1 = 0.05983): 2.198 ± 0.021 mPa·s | viscosity (303.95 K, x1 = 0.1191): 3.023 ± 0.023 mPa·s | viscosity (304.51 K, x1 = 0.05983): 2.142 ± 0.021 mPa·s | viscosity (305.15 K, x1 = 0.0762): 2.408 ± 0.023 mPa·s | viscosity (305.15 K, x1 = 0.1191): 2.923 ± 0.028 mPa·s | viscosity (305.15 K, x1 = 0.1861): 3.233 ± 0.031 mPa·s | viscosity (305.15 K, x1 = 0.2919): 3.307 ± 0.031 mPa·s | viscosity (305.51 K, x1 = 0.05983): 2.088 ± 0.02 mPa·s | viscosity (306.15 K, x1 = 0.1191): 2.842 ± 0.022 mPa·s | viscosity (306.51 K, x1 = 0.05983): 2.039 ± 0.019 mPa·s | viscosity (307.15 K, x1 = 0.0762): 2.292 ± 0.022 mPa·s | viscosity (307.15 K, x1 = 0.1191): 2.773 ± 0.025 mPa·s | viscosity (307.15 K, x1 = 0.1861): 3.051 ± 0.029 mPa·s | viscosity (307.15 K, x1 = 0.2919): 3.117 ± 0.029 mPa·s | viscosity (307.51 K, x1 = 0.05983): 1.989 ± 0.019 mPa·s | viscosity (308.15 K, x1 = 0.1191): 2.704 ± 0.021 mPa·s | viscosity (308.51 K, x1 = 0.05983): 1.943 ± 0.018 mPa·s | viscosity (309.15 K, x1 = 0.0762): 2.185 ± 0.021 mPa·s | viscosity (309.15 K, x1 = 0.1191): 2.637 ± 0.024 mPa·s | viscosity (309.15 K, x1 = 0.1861): 2.883 ± 0.027 mPa·s | viscosity (309.15 K, x1 = 0.2919): 2.94 ± 0.028 mPa·s | viscosity (309.51 K, x1 = 0.05983): 1.899 ± 0.018 mPa·s | viscosity (310.15 K, x1 = 0.1191): 2.572 ± 0.02 mPa·s | viscosity (310.51 K, x1 = 0.05983): 1.859 ± 0.017 mPa·s | viscosity (311.15 K, x1 = 0.0762): 2.088 ± 0.019 mPa·s | viscosity (311.15 K, x1 = 0.1191): 2.506 ± 0.023 mPa·s | viscosity (311.15 K, x1 = 0.1861): 2.726 ± 0.025 mPa·s | viscosity (311.15 K, x1 = 0.2919): 2.778 ± 0.026 mPa·s | viscosity (311.51 K, x1 = 0.05983): 1.819 ± 0.017 mPa·s | viscosity (312.15 K, x1 = 0.1191): 2.447 ± 0.019 mPa·s | viscosity (312.51 K, x1 = 0.05983): 1.781 ± 0.017 mPa·s | viscosity (313.15 K, x1 = 0.0762): 2 ± 0.018 mPa·s | viscosity (313.15 K, x1 = 0.1191): 2.385 ± 0.022 mPa·s | viscosity (313.15 K, x1 = 0.2919): 2.628 ± 0.024 mPa·s | viscosity (313.51 K, x1 = 0.05983): 1.738 ± 0.016 mPa·s | viscosity (314.15 K, x1 = 0.1191): 2.329 ± 0.018 mPa·s | viscosity (314.51 K, x1 = 0.05983): 1.711 ± 0.015 mPa·s | viscosity (315.15 K, x1 = 0.0762): 1.922 ± 0.017 mPa·s | viscosity (315.15 K, x1 = 0.1191): 2.277 ± 0.02 mPa·s | viscosity (315.15 K, x1 = 0.1861): 2.449 ± 0.023 mPa·s | viscosity (315.15 K, x1 = 0.2919): 2.489 ± 0.023 mPa·s | viscosity (315.51 K, x1 = 0.05983): 1.681 ± 0.015 mPa·s | viscosity (316.13 K, x1 = 0.05983): 1.662 ± 0.014 mPa·s | viscosity (316.15 K, x1 = 0.1191): 2.23 ± 0.018 mPa·s | viscosity (316.81 K, x1 = 0.05983): 1.642 ± 0.015 mPa·s | viscosity (317.15 K, x1 = 0.0762): 1.852 ± 0.017 mPa·s | viscosity (317.15 K, x1 = 0.1191): 2.183 ± 0.019 mPa·s | viscosity (317.15 K, x1 = 0.1861): 2.326 ± 0.021 mPa·s | viscosity (317.15 K, x1 = 0.2919): 2.362 ± 0.022 mPa·s | viscosity (317.51 K, x1 = 0.05983): 1.625 ± 0.014 mPa·s | viscosity (318.01 K, x1 = 0.05983): 1.613 ± 0.015 mPa·s | viscosity (318.15 K, x1 = 0.0762): 1.822 ± 0.016 mPa·s | viscosity (318.62 K, x1 = 0.05983): 1.6 ± 0.013 mPa·s | viscosity (318.65 K, x1 = 0.1191): 2.111 ± 0.021 mPa·s | viscosity (319.14 K, x1 = 0.05983): 1.591 ± 0.014 mPa·s | viscosity (319.15 K, x1 = 0.0762): 1.795 ± 0.015 mPa·s | viscosity (319.15 K, x1 = 0.1191): 2.084 ± 0.017 mPa·s | viscosity (319.15 K, x1 = 0.1861): 2.212 ± 0.02 mPa·s | viscosity (319.15 K, x1 = 0.2919): 2.243 ± 0.02 mPa·s | viscosity (319.62 K, x1 = 0.05983): 1.583 ± 0.013 mPa·s | viscosity (320.12 K, x1 = 0.05983): 1.579 ± 0.013 mPa·s | viscosity (320.15 K, x1 = 0.0762): 1.773 ± 0.015 mPa·s | viscosity (320.15 K, x1 = 0.1191): 2.045 ± 0.017 mPa·s | viscosity (320.62 K, x1 = 0.05983): 1.578 ± 0.014 mPa·s | viscosity (320.65 K, x1 = 0.0762): 1.766 ± 0.015 mPa·s | viscosity (320.92 K, x1 = 0.05983): 1.577 ± 0.02 mPa·s | viscosity (321.12 K, x1 = 0.05983): 1.58 ± 0.014 mPa·s | viscosity (321.15 K, x1 = 0.0762): 1.76 ± 0.014 mPa·s | viscosity (321.15 K, x1 = 0.1191): 2.002 ± 0.018 mPa·s | viscosity (321.15 K, x1 = 0.1861): 2.105 ± 0.019 mPa·s | viscosity (321.15 K, x1 = 0.2919): 2.131 ± 0.019 mPa·s | viscosity (321.31 K, x1 = 0.05983): 1.58 ± 0.024 mPa·s | viscosity (321.51 K, x1 = 0.05983): 1.585 ± 0.019 mPa·s | viscosity (321.65 K, x1 = 0.0762): 1.761 ± 0.015 mPa·s | viscosity (321.71 K, x1 = 0.05983): 1.594 ± 0.025 mPa·s | viscosity (321.87 K, x1 = 0.05983): 1.602 ± 0.034 mPa·s | viscosity (321.95 K, x1 = 0.03452): 1.083 ± 0.019 mPa·s | viscosity (321.95 K, x1 = 0.0762): 1.764 ± 0.015 mPa·s | viscosity (321.96 K, x1 = 0.05983): 1.611 ± 0.036 mPa·s | viscosity (322.06 K, x1 = 0.05983): 1.621 ± 0.05 mPa·s | viscosity (322.12 K, x1 = 0.05983): 1.628 ± 0.017 mPa·s | viscosity (322.15 K, x1 = 0.03452): 1.081 ± 0.012 mPa·s | viscosity (322.15 K, x1 = 0.0762): 1.77 ± 0.015 mPa·s | viscosity (322.15 K, x1 = 0.1191): 1.962 ± 0.016 mPa·s | viscosity (322.17 K, x1 = 0.05983): 1.634 ± 0.052 mPa·s | viscosity (322.21 K, x1 = 0.05983): 1.643 ± 0.044 mPa·s | viscosity (322.25 K, x1 = 0.0762): 1.775 ± 0.023 mPa·s | viscosity (322.26 K, x1 = 0.05983): 1.654 ± 0.11 mPa·s | viscosity (322.32 K, x1 = 0.05983): 1.669 ± 0.031 mPa·s | viscosity (322.35 K, x1 = 0.0762): 1.783 ± 0.024 mPa·s | viscosity (322.37 K, x1 = 0.05983): 1.686 ± 0.064 mPa·s | viscosity (322.42 K, x1 = 0.05983): 1.711 ± 0.05 mPa·s | viscosity (322.44 K, x1 = 0.05983): 1.722 ± 0.061 mPa·s | viscosity (322.45 K, x1 = 0.03452): 1.076 ± 0.01 mPa·s | viscosity (322.45 K, x1 = 0.0762): 1.791 ± 0.015 mPa·s | viscosity (322.46 K, x1 = 0.05983): 1.734 ± 0.12 mPa·s | viscosity (322.47 K, x1 = 0.05983): 1.741 ± 0.13 mPa·s and 1.749 ± 0.14 mPa·s | viscosity (322.49 K, x1 = 0.05983): 1.758 ± 0.015 mPa·s and 1.764 ± 0.029 mPa·s | viscosity (322.51 K, x1 = 0.05983): 1.786 ± 0.21 mPa·s and 1.786 ± 0.2 mPa·s and 1.793 ± 0.19 mPa·s | viscosity (322.55 K, x1 = 0.0762): 1.804 ± 0.028 mPa·s | viscosity (322.62 K, x1 = 0.0762): 1.817 ± 0.036 mPa·s and 1.818 ± 0.035 mPa·s | viscosity (322.65 K, x1 = 0.03452): 1.074 ± 0.039 mPa·s | viscosity (322.95 K, x1 = 0.03452): 1.07 ± 0.022 mPa·s | viscosity (323.15 K, x1 = 0.03452): 1.069 ± 0.02 mPa·s | viscosity (323.15 K, x1 = 0.1191): 1.921 ± 0.017 mPa·s | viscosity (323.15 K, x1 = 0.1861): 2.007 ± 0.02 mPa·s | viscosity (323.15 K, x1 = 0.2919): 2.028 ± 0.026 mPa·s
